# Measurements reported in PubChem BioAssay AID540267 (National Center for Advancing Translational Sciences (NCATS), 2011).
# Screen size: about 340,000 compounds; about 530 (0.16%) were called active. This list was built around the results that the source calls inconclusive (neither active nor inactive); the mix of calls is not that of the screen. No stated cut-off is given here; in the data, active means activity change below about -80%; inconclusive means between about -30% and that limit; inactive means weaker than that.
# Assay: Small Molecules that selectively kill Giardia lamblia: qHTS;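 further: parasites exposed to compound for two days anaerobically before the ATP read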
# Settings: Giardia lamblia trophozoite viability; at 7.66 µM; hits give low values
# In short: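 Compounds were tested on trophozoites seeded at 100 cells/well and held 48 hrs at 37 deg C anaerobically. An ATP-based luminescent kit measured the remaining live cells.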
# On the % scale 0 is the no-effect control and ±100 the full control effect.
row,Structure (SMILES),activity change
1,O=C(Nc1nc2c(F)cc(F)cc2s1)c1ccco1,inconclusive: -32.2% [inhibitor]
2,O=C(NC(=S)Nc1nc2c(s1)CCCC2)c1ccccc1,inconclusive: -39.4% [inhibitor]
3,COc1ccccc1NC(=S)N(Cc1cccs1)C1CCCC1,inconclusive: -33% [inhibitor]
4,O=[N+]([O-])c1ccc(CN2CCN(c3ccccc3)CC2)o1,active: -92.1%
5,C/C(=N\NC(=O)CCc1ccccc1)C1C(=O)c2ccccc2C1=O,inactive: -21.1%
6,COc1cccc(CC(=O)NC2CCSc3ccccc32)c1 (stereo unspecified),inconclusive: -37.7% [inhibitor]
7,COc1ccc(/C=C/C(=O)NCc2cn(C)nc2C)cc1COc1ccc(Br)cc1,inactive: 16.3%
8,CCOC(=O)NC(=S)Nc1ccc(OC)cc1,inconclusive: -40.9% [inhibitor]
9,O=C1NC2c3c(Cl)sc(Cl)c3C(=O)C2O1 (stereo unspecified),inactive: 30.3%
10,COn1c(-c2ccccc2)nc2c1CCc1nonc1-2,inconclusive: -33% [inhibitor]
11,CC1CCN(Cc2ccc(NC(=O)C3CCN(c4nnc(-n5cccc5)s4)CC3)cc2)CC1,inconclusive: -35.5% [inhibitor]
12,Cc1onc(-c2ccccc2Cl)c1C(=O)Nc1nnc(-c2ccc(Cl)cc2Cl)s1,inconclusive: -39.2% [inhibitor]
13,COc1ccccc1CNC(=O)CSc1ccsc1[N+](=O)[O-],inconclusive: -77.3% [inhibitor]
14,CN(C(=O)COC(=O)/C=C/c1ccc(C(F)(F)F)cc1)C1CCS(=O)(=O)C1 (stereo unspecified),inconclusive: -33% [inhibitor]
15,CCOc1ccc(-c2ccc(SCC(=O)Nc3nnc(CC)s3)nn2)cc1,inconclusive: -43.2% [inhibitor]
16,CCC(=O)Nc1cc2nn(-c3ccc(C)cc3)nc2cc1C,inconclusive: -42.1% [inhibitor]
17,Cc1ccc(-n2ncc3c(NNC(=O)c4ccco4)ncnc32)c(C)c1,inactive: 14.4%
18,CC1CCCN(c2ncnc3c2cnn3-c2ccccc2)C1 (stereo unspecified),inconclusive: -35.1% [inhibitor]
19,OCCC1CN(CC2CCCCC2)CCN1CC1CCCCC1 (stereo unspecified),inconclusive: -32.1% [inhibitor]
20,C#CCOCCOCCOCCNc1nc(N2CCN(C(=O)[C@H](CCC(=O)O)n3cc([C@@H](N)CO)nn3)CC2)nc(N2CCN(C(=O)[C@H](CCC(=O)O)n3cc([C@@H](N)CCSC)nn3)CC2)n1,inconclusive: -31.6% [inhibitor]
21,O=[N+]([O-])c1cnc(Nc2ccc(Cl)cn2)c([N+](=O)[O-])c1,inconclusive: -35.8% [inhibitor]
22,CCC(C(=O)Nc1cccc(C(=O)O)c1)c1ccccc1 (stereo unspecified),inconclusive: -35.4% [inhibitor]
23,COCCN(Cc1ccccc1)C(=O)c1ccc2c(c1)NC(=O)CS2,inconclusive: -40% [inhibitor]
24,CCc1ccccc1NC(=O)CSc1ccsc1[N+](=O)[O-],inconclusive: -73% [inhibitor]
25,COc1ccc(B(O)O)c(CN2CCN(C(=O)OC(C)(C)C)CC2)c1,inactive: -18.6%
26,O=C(CCS(=O)(=O)Cc1ccccc1)Nc1ncc([N+](=O)[O-])s1,inconclusive: -73.5% [inhibitor]

row,Structure (SMILES),activity change
1,O=C(Nc1ccc2[nH]ccc2c1)c1ccc(F)cc1,active: -83.2%
2,CC[C@]12c3[nH]c4cc(-c5ccco5)ccc4c3CCN1C(=O)[C@@H](CC(=O)NCc1cccc(C(F)(F)F)c1)C[C@@H]2C(=O)N1CCN(C(=O)C2CC2)CC1,inconclusive: -39.7% [inhibitor]
3,COc1ccc(-c2cn[nH]c2N)cc1OC,inactive: 0.535%
4,FC(F)C(F)(F)c1cc(-c2ccc(Cl)cc2)n[nH]1,inactive: -13.4%
5,Cc1cccc(CS(=O)(=O)c2ncc(Cl)c(C(=O)NCc3ccc4c(c3)OCO4)n2)c1,inconclusive: -43% [inhibitor]
6,O=C1/C(=C/c2cccnc2)Oc2cc(OS(=O)(=O)c3ccc(F)cc3)ccc21,inactive: -4.36%
7,O=C(Nc1ccncc1)c1ccccc1Cl,inconclusive: -30.9% [inhibitor]
8,O=S(=O)(NCC1CC1)c1cc(Cl)cc(Cl)c1,inconclusive: -30.4% [inhibitor]
9,COc1ccccc1C(=O)Nc1nc2ccccc2[nH]1,active: -84.1%
10,O=[N+]([O-])c1nn(-c2ccc3c(c2)OCCO3)n(O)c1=NCc1ccc(F)cc1,inconclusive: -75.3% [inhibitor]
11,CCN(CC)C(=O)Cn1cc(C(=O)C(=O)NCCc2c[nH]c3ccccc23)c2ccccc21,inconclusive: -35.6% [inhibitor]
12,COc1cc(OC)cc(-c2sc3ccc(OC)cc3c2C#CCO)c1,inconclusive: -34.8% [inhibitor]
13,COc1ccc2cc([C@H](C)C(=O)N(C)Cc3ccccc3N3CCCC3)ccc2c1,inactive: -3.68%
14,Cc1cc(C)nc(SCC(=O)Nc2ccc(S(=O)(=O)Nc3onc(C)c3C)cc2)n1,inconclusive: -39.5% [inhibitor]
15,O=C(C1CCN(c2nc(-c3ccccc3)nc3c2CCC3)CC1)N1CCCC1,inconclusive: -34.4% [inhibitor]
16,COc1cc(OC)cc(C(=O)NC(C(=O)NNC(=O)CN(C)S(=O)(=O)c2ccc(C)cc2)C(C)C)c1 (stereo unspecified),inconclusive: -35.1% [inhibitor]
17,CCCCN(C(=O)c1ccc(N2CCCC2=O)cc1)c1c(N)n(CCC)c(=O)[nH]c1=O,inconclusive: -36.3% [inhibitor]
18,Cc1ccc(C)c(OCCC(=O)OCC(=O)Nc2ccc(Cl)cn2)c1,inconclusive: -37.8% [inhibitor]
19,COc1ccccc1C(=O)NC(=S)N1CCc2ccccc21,inactive: -15.7%
20,Cc1ccc(S(=O)(=O)N2CCC(=O)N(C(COCc3ccc(C(F)(F)F)cc3)C(C)C)CC2)cc1 (stereo unspecified),inconclusive: -38.4% [inhibitor]
21,O=S(=O)(c1cccs1)N1CN(Cc2ccco2)c2nc3ccccc3nc21,inactive: -14.4%
22,COc1ccc(NC(=O)C2CC(c3ccc(Cl)cc3)=NO2)cc1 (stereo unspecified),inconclusive: -31% [inhibitor]
23,CC(NC(=O)COc1cccnc1[N+](=O)[O-])c1ccc(F)cc1 (stereo unspecified),inconclusive: -49.3% [inhibitor]
24,CCOc1ccc(-c2nc(N)ncc2-c2ccccc2)c(O)c1,inconclusive: -36.8% [inhibitor]
25,NC(=O)c1nn(-c2ccccc2)nc1NC(=O)CN1CCCCC1,inconclusive: -30.1% [inhibitor]
26,O=C(ONc1ccc(N=NC(=O)c2ccccc2O)cc1)c1ccccc1,inconclusive: -33.7% [inhibitor]

row,Structure (SMILES),activity change
1,CCOC(=O)c1cn2c(C)cccc2n1,inconclusive: -33.6% [inhibitor]
2,COc1cccc(C(=O)CC(=O)C(=O)Nc2ccc(C)cc2Cl)c1,inconclusive: -32.1% [inhibitor]
3,CSc1ccc(CN(C)C(=O)CCNS(=O)(=O)c2ccc(C)c(C)c2)cc1,inactive: -6.04%
4,N#C/C(=C\c1ccc(O)c([N+](=O)[O-])c1)C(=O)NCc1ccccc1,inconclusive: -57.3% [inhibitor]
5,COc1ccc(OC(C)C(=O)Nc2ccc([N+](=O)[O-])cc2)cc1 (stereo unspecified),inactive: -15.5%
6,O=C(O)C(=O)/C(=C\c1ccsc1)c1ccc2ccccc2n1,inconclusive: -33.7% [inhibitor]
7,O=C(O)CSc1nc2sc3c(c2c(=O)n1-c1ccccc1)CCC3,inconclusive: -34.5% [inhibitor]
8,CCOC(=O)N1CCN(C(=O)CSc2nc3c(cnn3-c3ccc(C)cc3)c(=O)[nH]2)CC1,inconclusive: -38% [inhibitor]
9,CCc1cc2c(COC(=O)c3cccc(S(C)(=O)=O)c3)cc(=O)oc2cc1O,inactive: -28.7%
10,CC1(C)CC2CC(C)(CN2S(=O)(=O)c2cccc(C(=O)O)c2)C1 (stereo unspecified),inconclusive: -46.7% [inhibitor]
11,COc1ccc2ncc(S(=O)(=O)c3ccccc3)c(N3CCN(c4ccccc4)CC3)c2c1,inconclusive: -31.9% [inhibitor]
12,O=C(/C=C/c1cccnc1)/C=C/c1cccnc1,inconclusive: -46.6% [inhibitor]
13,O=S(=O)(N[C@H](CO)c1ccccc1)c1ccc(Br)cc1F,inactive: -5.5%
14,O=[N+]([O-])c1nn(-c2ccc3c(c2)OCCO3)n(O)c1=Nc1ccccc1,inconclusive: -39.8% [inhibitor]
15,CCc1ccc(S(=O)(=O)Nc2ccc(-c3ccc4nnc(C)n4n3)cc2)s1,inconclusive: -48.3% [inhibitor]
16,Cc1ccc(NC(=O)C(=O)Nc2ccccn2)cc1,inconclusive: -56.9% [inhibitor]
17,NC(=O)CC(NC(=O)Cc1ccc(Cl)cc1)c1ccc(NCCN2CCOCC2)c([N+](=O)[O-])c1 (stereo unspecified),inconclusive: -35.6% [inhibitor]
18,Cc1cc(C(=O)COC(=O)c2ccc([N+](=O)[O-])o2)c(C)n1CC1CCCO1 (stereo unspecified),inconclusive: -40.4% [inhibitor]
19,CN(Cc1ccccc1)C(=O)c1ccc(NC(=O)Cc2ccc(NC(=O)C3CCCN(C(=O)C4CC4)C3)cc2)cc1 (stereo unspecified),inconclusive: -32.9% [inhibitor]
20,OCC1CCCCN1CC(O)COC(c1ccc(F)cc1)c1ccc(F)cc1 (stereo unspecified),inconclusive: -37.1% [inhibitor]
21,COCCNC(=O)c1ccc(C(=O)NCCOC)s1,inactive: -5.4%
22,O=Cc1cccc(Oc2ncccn2)c1,inactive: -11%
23,Cc1ccc(/C=C2\SC(=S)N(CCC(=O)NNC(=O)c3ccccc3O)C2=O)cc1,inactive: 2.77%
24,O=[N+]([O-])c1cccc(/C=C/c2nc[nH]c2[N+](=O)[O-])c1,active: -81.5%
